{"source": "the supplement of paper PMC3334620", "note": "In all, about 33,000 sequences were measured (“E-score (-0.5 to 0.5)”: median about -0.054, highest 2% from about 0.39 on). This is one part of the list."}
{"biological_target": "Ylr278c (UniProt Q05854)", "assay": "PBM E-score (8-mer binding enrichment) (E-score (-0.5 to 0.5)); higher = stronger / more preferred TF binding; most listed sequences are background and not binding sites", "conditions": "protein concentration: 200 nM; construct: GST-DNA-binding domain", "how_it_was_run": "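Using PURExpress in vitro transcription/translation, GST-tagged yeast transcription factors were made in full-length or DNA-binding-domain form. These were applied at about 100-200 nM to double-stranded universal all-10-mer Agilent arrays, and bound protein was detected with fluorescent anti-GST. Scans were normalised with masliner before the Universal PBM Analysis Suite assigned E-scores to ungapped eight-base words pooled with their reverse complements.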"}
{"sequence": "ATTATAAT", "PBM E-score": 0.104}
{"sequence": "CACTTAAC", "PBM E-score": -0.162}
{"sequence": "GTACGTTA", "PBM E-score": 0.0478}
{"sequence": "ACCTCCGT", "PBM E-score": 0.383}
{"sequence": "ACAATCAG", "PBM E-score": -0.177}
{"sequence": "CACGGCAC", "PBM E-score": -0.0251}
{"sequence": "GGGTCTTA", "PBM E-score": -0.0338}
{"sequence": "ACCAACTC", "PBM E-score": -0.047}
{"sequence": "ACGCCAGT", "PBM E-score": -0.211}
{"sequence": "CTTATACC", "PBM E-score": -0.0532}
{"sequence": "AGTCTAAA", "PBM E-score": -0.213}
{"sequence": "CCAGAAAC", "PBM E-score": 0.0237}
{"sequence": "GGGGCCCC", "PBM E-score": 0.24}
{"sequence": "CTTCCGAC", "PBM E-score": 0.273}
{"sequence": "GTTTCGTA", "PBM E-score": 0.0178}
{"sequence": "AAGTTGCA", "PBM E-score": -0.162}
{"sequence": "AAGCGGCA", "PBM E-score": 0.24}
{"sequence": "GAAGCAAA", "PBM E-score": -0.266}
{"sequence": "CGGGGCGA", "PBM E-score": 0.261}
{"sequence": "AGTACGAT", "PBM E-score": -0.116}
{"sequence": "CAGTAGGC", "PBM E-score": -0.254}
{"sequence": "AACCCAAG", "PBM E-score": -0.101}
{"sequence": "CCGCGCGA", "PBM E-score": 0.216}
{"sequence": "GTTATATA", "PBM E-score": -0.0729}
{"sequence": "TGTACGAA", "PBM E-score": -0.0825}
{"sequence": "CTCGAGAC", "PBM E-score": 0.00037}
{"sequence": "ATCAACTC", "PBM E-score": -0.0566}
{"sequence": "AGGCAGTG", "PBM E-score": -0.195}
{"sequence": "ACCTCTCG", "PBM E-score": -0.122}
{"sequence": "ATGTAGCG", "PBM E-score": -0.0307}
{"sequence": "ATAGAGGA", "PBM E-score": -0.313}
{"sequence": "AGGCCGCC", "PBM E-score": 0.138}
{"sequence": "ACCGGCCA", "PBM E-score": 0.169}
{"sequence": "GAGATCCC", "PBM E-score": 0.221}
{"sequence": "AATGGATC", "PBM E-score": -0.0163}
{"sequence": "GAGATAAA", "PBM E-score": 0.104}
{"sequence": "ACCTCAGA", "PBM E-score": -0.0802}
{"sequence": "TGTGGTAA", "PBM E-score": -0.0151}
{"sequence": "AGTCACAT", "PBM E-score": -0.203}
{"sequence": "CTCACAAC", "PBM E-score": -0.0413}
{"sequence": "TAATCGGA", "PBM E-score": 0.417}
{"sequence": "ATCCTCGA", "PBM E-score": -0.17}
{"sequence": "CGTTAAGA", "PBM E-score": -0.157}
{"sequence": "CGCGAGAG", "PBM E-score": 0.0707}
{"sequence": "ACGGAAAA", "PBM E-score": 0.346}
{"sequence": "AACCGGAC", "PBM E-score": 0.414}
{"sequence": "ATGGTCAC", "PBM E-score": -0.0597}
{"sequence": "ATCCCAGA", "PBM E-score": -0.238}
{"sequence": "CCACAGAG", "PBM E-score": -0.25}
{"sequence": "TCTATGAA", "PBM E-score": -0.214}
{"sequence": "CCAAAACA", "PBM E-score": -0.244}
{"sequence": "ACCTGCCA", "PBM E-score": -0.169}
{"sequence": "GGCTGCAA", "PBM E-score": 0.0552}
{"sequence": "TGCTTCAA", "PBM E-score": -0.131}
{"sequence": "ACATTCCA", "PBM E-score": -0.0927}
{"sequence": "AATAGAGT", "PBM E-score": -0.299}
{"sequence": "CAAGTGAG", "PBM E-score": -0.263}
{"sequence": "CAATGTAA", "PBM E-score": -0.0302}
{"sequence": "TAAAACGA", "PBM E-score": -0.2}
{"sequence": "ATGTACCC", "PBM E-score": -0.103}
{"sequence": "ACAACCAG", "PBM E-score": -0.174}
{"sequence": "AAAACCGA", "PBM E-score": 0.236}
{"sequence": "AGCAGGGA", "PBM E-score": -0.141}
{"sequence": "ATTAATCA", "PBM E-score": -0.0639}
{"sequence": "TCATGACA", "PBM E-score": -0.0511}
{"sequence": "CCTGAAGA", "PBM E-score": -0.0995}
{"sequence": "GAACGACC", "PBM E-score": -0.189}
{"sequence": "TCCCGTCA", "PBM E-score": 0.139}
{"sequence": "CTCCACAG", "PBM E-score": -0.271}
{"sequence": "AATGTCTG", "PBM E-score": -0.0409}
{"sequence": "AATCGAGG", "PBM E-score": -0.0146}
{"sequence": "CGCGATGA", "PBM E-score": 0.0922}
{"sequence": "GCGTCGAA", "PBM E-score": -0.0135}
{"sequence": "CCTGCGAA", "PBM E-score": -0.0352}
{"sequence": "CAGCAGAA", "PBM E-score": -0.0912}
{"sequence": "CCCATCCC", "PBM E-score": -0.0544}
{"sequence": "CTAACTAG", "PBM E-score": 0.00403}
{"sequence": "CTACACGA", "PBM E-score": -0.136}
{"sequence": "AAACATCC", "PBM E-score": 0.191}
{"sequence": "ATGGCAAA", "PBM E-score": -0.154}
{"sequence": "AACATGAG", "PBM E-score": -0.164}
{"sequence": "AGAAGAAC", "PBM E-score": -0.00839}
{"sequence": "CGCATGAA", "PBM E-score": -0.0862}
{"sequence": "AATGTATC", "PBM E-score": -0.107}
{"sequence": "CACACACA", "PBM E-score": -0.153}
{"sequence": "AGGCACAT", "PBM E-score": -0.0629}
{"sequence": "ACTATGAC", "PBM E-score": -0.198}
{"sequence": "ATTTGTCG", "PBM E-score": 0.17}
{"sequence": "AAATTACG", "PBM E-score": -0.0128}
{"sequence": "ACGAACTG", "PBM E-score": -0.0669}
{"sequence": "AGGGATGC", "PBM E-score": -0.32}
{"sequence": "AAGCCTTG", "PBM E-score": -0.127}
{"sequence": "ACGTAAGT", "PBM E-score": -0.159}
{"sequence": "CCTATCCA", "PBM E-score": -0.169}
{"sequence": "CCGGAGCC", "PBM E-score": 0.422}
{"sequence": "GCCTGGCC", "PBM E-score": -0.0237}
{"sequence": "ATACGATA", "PBM E-score": -0.118}
{"sequence": "ACCTTGAA", "PBM E-score": -0.244}
{"sequence": "GACTATGC", "PBM E-score": -0.197}
{"sequence": "ACCTAGTC", "PBM E-score": -0.11}
{"sequence": "AGGGCTAT", "PBM E-score": -0.31}
{"sequence": "TCACATCA", "PBM E-score": -0.118}
{"sequence": "CCTCATGA", "PBM E-score": -0.121}
{"sequence": "GACCACCC", "PBM E-score": -0.191}
{"sequence": "TACACGAA", "PBM E-score": 0.0186}
{"sequence": "ATCCGTTG", "PBM E-score": 0.255}
{"sequence": "ATGGATGA", "PBM E-score": -0.173}
{"sequence": "CAAGAGGG", "PBM E-score": -0.292}
{"sequence": "AACGTATG", "PBM E-score": -0.345}
{"sequence": "ACCACCCG", "PBM E-score": 0.0732}
{"sequence": "CGGGAGAA", "PBM E-score": 0.238}
{"sequence": "TACGGGAA", "PBM E-score": 0.182}
{"sequence": "AGGAGTTA", "PBM E-score": 0.232}
{"sequence": "ACTAATCA", "PBM E-score": 0.0547}
{"sequence": "CAATTTCG", "PBM E-score": 0.0307}
{"sequence": "ACTGGCGA", "PBM E-score": -0.237}
{"sequence": "ACGACATC", "PBM E-score": -0.044}
{"sequence": "CACTACCC", "PBM E-score": -0.118}
{"sequence": "AATGGAAG", "PBM E-score": 0.0805}
{"sequence": "CTGCCGAA", "PBM E-score": 0.0975}
{"sequence": "ACACCGAG", "PBM E-score": 0.203}
{"sequence": "CCTGGAAG", "PBM E-score": -0.185}
{"sequence": "CAGGATCG", "PBM E-score": 0.00336}
{"sequence": "AAAGAGAG", "PBM E-score": -0.119}
{"sequence": "CCCGGAAA", "PBM E-score": 0.429}
{"sequence": "ACTAGCGC", "PBM E-score": 0.0149}
{"sequence": "AGTCATCC", "PBM E-score": -0.0541}
{"sequence": "CATAAGGA", "PBM E-score": -0.298}
{"sequence": "GCGCGTAC", "PBM E-score": 0.179}
{"sequence": "CAGCCCGG", "PBM E-score": 0.348}
{"sequence": "CTCCGACA", "PBM E-score": 0.438}
{"sequence": "ACTCTTGG", "PBM E-score": -0.243}
{"sequence": "CCCATCGG", "PBM E-score": 0.341}
{"sequence": "AGGCTCTA", "PBM E-score": -0.116}
{"sequence": "TCAAGAGA", "PBM E-score": -0.0473}
{"sequence": "ATCGCTCC", "PBM E-score": 0.171}
{"sequence": "TCATATCA", "PBM E-score": -0.0987}
{"sequence": "CCATCCAC", "PBM E-score": -0.157}
{"sequence": "AACTGATC", "PBM E-score": -0.0713}
{"sequence": "CCGCAACG", "PBM E-score": 0.235}
{"sequence": "ATTATCAA", "PBM E-score": -0.131}
{"sequence": "ATAGGGTG", "PBM E-score": -0.185}
{"sequence": "GTTGGATA", "PBM E-score": -0.0965}
{"sequence": "ACCTTCCC", "PBM E-score": -0.0567}
{"sequence": "CTAGCACC", "PBM E-score": -0.00874}
{"sequence": "GACTGGTA", "PBM E-score": 0.0894}
{"sequence": "AGCACTTG", "PBM E-score": -0.312}
{"sequence": "AAACGCAG", "PBM E-score": 0.0348}
{"sequence": "AAGTTCAG", "PBM E-score": -0.179}
{"sequence": "CGCTGACC", "PBM E-score": 0.0763}
{"sequence": "AGTTAAGA", "PBM E-score": -0.191}
{"sequence": "GACCATAC", "PBM E-score": 0.0249}
{"sequence": "GGCGACCC", "PBM E-score": 0.114}
{"sequence": "CGTATTGC", "PBM E-score": 0.144}
{"sequence": "ACGTTGGC", "PBM E-score": -0.0969}
{"sequence": "GGGGTTAC", "PBM E-score": 0.121}
{"sequence": "CTTGGACC", "PBM E-score": -0.0833}
{"sequence": "CGGGAATA", "PBM E-score": 0.374}
{"sequence": "AGCAGAAC", "PBM E-score": -0.208}
{"sequence": "CTATGTGC", "PBM E-score": -0.147}
{"sequence": "CGGGCGAC", "PBM E-score": 0.217}
{"sequence": "AGTCGTGA", "PBM E-score": -0.211}
{"sequence": "CCGGTCTC", "PBM E-score": 0.264}
{"sequence": "AGCATGCG", "PBM E-score": -0.0092}
{"sequence": "ACTAGAGA", "PBM E-score": -0.112}
{"sequence": "AGTACTCA", "PBM E-score": -0.24}
{"sequence": "GTACCGGA", "PBM E-score": 0.415}
{"sequence": "GGGGGTTA", "PBM E-score": -0.28}
{"sequence": "CCGGGATA", "PBM E-score": 0.395}
{"sequence": "CGCCGTCC", "PBM E-score": 0.173}
{"sequence": "GCGCGCAA", "PBM E-score": 0.219}
{"sequence": "CTACTATA", "PBM E-score": 0.0735}
